The supplement of paper PMC11417369
The list shows a part of the results.

test system: PfAP2-HC AP2 domain (GST-tagged); assay: gcPBM binding intensity (ln(normalized median fluorescence intensity)); higher = stronger DNA binding
Method in brief: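 For binding intensity, the highest Masliner-normalised natural-log median intensity across replicate spots of either probe orientation was taken. Protein bound to the array was stained with Alexa488 anti-GST antibody and scanned at 488 nm. The protein, GST-tagged P. falciparum DNA-binding domains from E. coli at about 25 μg on average, had been applied for 1 h to an Agilent 4 × 180k array of primer-extended double-stranded 36-bp intergenic genomic probes and negative controls.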

Sequence	gcPBM binding intensity (ln)
AAAAAGTAAAAGAAAGCACACACACCGGTATATATG [CACACA_site9281]	10.5
AACAAAATAAGACACACACACAAATGTACCTATATA [CACACA_site7189]	10.4
TCTTTTTTAAATAAAAGTACAAAAAAAAATAAAAAA [XGTACX_site2670]	9.5
AAAAAAAATATGAAAACACACATATATAAATAAATA [CACACA_site113]	10
TAATATATATGTATGGCACACACGGATAAATATATA [CACACA_site930]	10.1
CATGCCTTTAAAAAGGTGCAAACATTTTCACAAACA	9.53
AACGGGTAATGCACAAAAAAAAAAAAATAAAATAAA [TGCATGCA_negctrl_site474]	9.65
AAATTATTTTGTTATCATTATATATAGATTGAATAT [XGTACX_negctrl_site165]	9.5
TTCTTTTAAATTAGCTGTACGGTTTTCTACATGCAT [XGTACX_site356]	9.99
CAAACAAATATATGTTGTACTTATTATATATACATA [XGTACX_site2998]	9.56
TTATCATATGTATGCATACACACAAAAAATTATATA [CACACA_site397]	9.78
ATGTAATTCTTTTACTTTTTTTTTTTTTTTTTTTTT [CACACA_negctrl_site979]	9.23
ATAAATGAGCCATATTAAATCCGTTACACGGGTGTG [CACACA_negctrl_site1368]	9.51
CAGACAATAAAGAAGTGTACACATATATCAATAAAA [XGTACX_site4515]	9.88
CTTTATCTTCTCACGAAGATTGAATAAGGTATTCTT [XGTACX_negctrl_site307]	9.47
AAAAAAAAATACCTACGTACATATATATATTATATA [XGTACX_site3983]	9.72
TTAATGCACTTTATTACACACACTAGTTCATTACCT [CACACA_site2294]	10.2
AGAGAGAGAAATACAAGTACATGTGAAACCAATCTA [XGTACX_site2767]	9.86
AAAAAATAAAAAAAAACACACACATACAAGCATATA [CACACA_site8451]	11.1
TTCAACATAATATGCACACAAAAATTATGGAACGAA [CACACA_site2111]	9.99
AAAAAAAAAAAAATTGCACACAAAAAAAAAAAAAAA [CACACA_site8644]	9.64
ATATAATAGTATATATGTACATATATTTAAATACTA [XGTACX_site1135]	9.75

Sequence	gcPBM binding intensity (ln)
TATATTATAATTTGAAGTACATTTTAAATTAACTAA [XGTACX_site1013]	9.29
ATATATGTATATATTTGTACATATAATATTTTTTAA [XGTACX_site6345]	9.67
ATTTGTAATTTATTCAAACACACAATTTGGACCTTT [CACACA_site1062]	9.68
TAATTAAGCATAAATATAATTTTATATTTTATTTCC [XGTACX_negctrl_site321]	9.28
TAACATAGCAATGTTTCACACACAAGAAAAAATACA [CACACA_site8747]	10.2
TGCAGTCTGGAGAAAAGTACATAGTATCTGGTAGCT [XGTACX_site2547]	9.5
TTTGTGTGTGCGTGTGCATGTTGTTTTTTTCTATAA [TGCATGCA_site17]	11.7
AATATAATAACTTATTGTACGAAATTATATCACCTT [XGTACX_site7883]	9.64
TATTCACATACAGAAACACACACATATATATAAATT [CACACA_site9232]	10.1
TTATAATATATATGTAGTACTGTTTTTTTCTATTTT [XGTACX_site7749]	9.76
TGTACAAATATGTACACACACACATATATATATATA [CACACA_site584]	10.3
TATTATTTTAAAAATGCATGTTCATATGAAATAATA [TGCATGCA_site969]	9.53
TTCGTTCTTTTATGCACACTCAACATATAAATTAAA [CACACA_site1209]	9.84
AAGGAGCCTATGAACACACACATGTACATATATTAA [CACACA_site4084]	10.1
ATACTATTATATATATGTACATATATATGATGCTCT [XGTACX_site1771]	9.78
AATATATATTTATGTACACACTCCAATACAGATACA [CACACA_site5481]	9.91
TGTAAAAAATTTAACACACACATATATAAATATGTA [CACACA_site7261]	10.2
CATATACATACACATACACACATACACCCATACACA [CACACA_site8514]	10.2
ATATGACGTAGTGGTGTACACACATGGTACCTTTAT [CACACA_site8436]	9.99
AGTAAATAATTATATACATGCATTTACTAATATTTA [TGCATGCA_site952]	9.74
ATGTAGAATTGTAAATGTACATGAAACACATATTCA [XGTACX_site3436]	9.8
CTCACATATATATATAGTACAATTTTTTTTTTTTTT [XGTACX_site5999]	9.53
